Laboratory results: PubChem BioAssay AID493208 (National Center for Advancing Translational Sciences (NCATS), 2011)
Hit rate of the full screen: of about 44,000 compounds, about 340 (0.77%) were called active. Roughly 5% stayed inconclusive and do not appear here. Calls follow the shape of the dose curve; as a rule, active = well fitted inhibition curve with a large enough effect; inconclusive = small, poorly fitted or top-dose-only effect; inactive = flat fitted curve, though single readings scatter. Some of the results follow.

Test: Acumen qHTS Assay for Inhibitors of the mTORC1 Signaling Pathway in MEF (Tsc2-/-, p53-/-) Cells: Sytravon; also: nearly all actives have a fitted effect of over 50% in size;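 as to activity change, negative = inhibition: plate controls were DMSO for no effect and rapamycin for full effect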
Conditions: phospho-rpS6 immunofluorescence/PI, 24 h; series mostly up to 38.3 µM; activity change, negative = inhibition: at the top concentration
Method in brief: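 Read-out: phospho-S6 Alexa-488 intensity over PI intensity per well, scored as % active cells using thresholds from rapamycin (7.5 nM) and DMSO controls. Tsc2-/-, p53-/- MEFs exposed to compound for 24 h; PI cell count recorded as viability.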
Potency is read from the fitted curve at half-maximal effect.

Activity change, negative = inhibition, inactive:
COc1ccc(N(CC(=O)Nc2ccc(Cl)cc2C)S(=O)(=O)c2ccccc2)c(OC)c1 -24.4%
COc1cc(-c2nnc(SCC(=O)N3CCCc4ccccc43)o2)cc(OC)c1OC -1.71%
CCc1ccc(S(=O)(=O)c2nnn3c2nc(Nc2cccc(C)c2C)c2sccc23)cc1 -3.13%
CCCN(C(=O)CCn1cnc2onc(-c3ccc(F)cc3)c2c1=O)c1ccccc1C 3.21%
Cc1ccc(Cl)cc1N1CCN(C(=O)Cn2nc(C)n3c(cc4sccc43)c2=O)CC1 -6.17%
CCOC(=O)c1c(-c2ccccc2)csc1NC(=O)c1cc(-c2cccc(OC)c2)on1 1.45%
Cc1cc(C)cc(C(=O)Nc2c3c(nn2-c2ccccc2C)CS(=O)(=O)C3)c1 -0.924%
O=C(Cn1nc2c(cc1=O)CCCC2)NCc1ccccc1Cl 3.14%
Cc1ccc(C(=O)Nc2nnc(SCc3cc(=O)n4ccc(C)cc4n3)s2)cc1 -11.3%
Cc1cc(C)cc(NC(=O)Cn2nnc(C(=O)NCc3ccco3)c2N)c1 -1.46%
O=C(CN1C(=O)COc2ccc(S(=O)(=O)N3CCCCCC3)cc21)N1CCN(c2ccccc2)CC1 -2.72%
CCC(=O)N1c2nc(C(C)C)nn2C2(CCCCC2)[C@@H]2CCCC[C@@H]21 -4.67%
CCOC(=O)c1cccc(NC(=O)C2CCN(c3nnc(C)c4c(C)n(-c5ccccc5)nc34)CC2)c1 -9.62%
COCCNC(=O)Cn1c(=O)n(-c2ccc(C)c(C)c2)c(=O)c2c3c(sc21)CCCCC3 1.25%
COc1ccc(Cl)cc1NC(=O)C(C)N1Cc2ccccc2C1=O (stereo unspecified) -15.9%
COc1ccc(NC(=O)CN2CCN(S(=O)(=O)c3ccc(Br)cc3)CC2)cc1 -18.2%
COc1ccc(NCc2cccn2-c2nnc(N3CCOCC3)s2)c(OC)c1 4.68%
CCOc1cc(CNC(=O)C(NS(=O)(=O)c2cccs2)C(C)C)cc(OCC)c1OCC (stereo unspecified) 0%
O=C(Cn1c(SCc2cccc(F)c2)nc2ccncc21)Nc1ccc(Cl)cc1F -1.42%
O=C(NNc1ncnc2c1cnn2-c1ccccc1)c1ccccc1 -2.12%
Cc1cn2c(=O)cc(COc3cccc(NC(=O)c4cccc(F)c4)c3)nc2s1 -3.54%
COc1ccc(C(=O)Nc2ccc3nc(N4CCCCC4)cc(C)c3c2)c(OC)c1 2.88%
COc1ccc(N2CCN(S(=O)(=O)CCNC(=O)Cc3ccc(-c4ccccc4)cc3)CC2)cc1 -6.1%
CCOc1ccccc1CNC(=O)c1cccc(NC(=O)c2nsc3ccccc23)c1 1.69%
CCOC(=O)c1c(NC(C)=O)c2c3c(sc2n1Cc1cccc(Cl)c1)CCCC3 0.363%
Cc1ccc(C(CC(=O)Nc2ccc(C)cc2C)N2Cc3ccccc3C2=O)cc1 (stereo unspecified) -2.64%
COc1cc(OC)c(NC(=O)c2cn(C3CCCC3)c(=O)c3c2c2ccccc2n3C)cc1Cl -1.77%
Cc1cc(C)c(S(=O)(=O)Nc2ccc3oc4c(c3c2)C(=O)CC(C)(C)C4)cc1C 1.14%
COc1ccc(-c2cnc(C)o2)cc1S(=O)(=O)Nc1ccc(F)cc1F 0%
CN(C)CCCNC(=O)C(=O)NCC(c1ccc2c(c1)OCO2)N1CCOCC1 (stereo unspecified) 2.95%
Cc1nc2nc(SCC(=O)Nc3ccccc3Cl)nn2c(C)c1Cc1ccccc1 2.05%
COc1cc2c(cc1OC)C(COc1ccc(F)cc1)N(C(=O)c1cccc(F)c1)CC2 (stereo unspecified) 10.4%
CN1CCN(C(=O)Cn2ncc3c4ccccc4n(Cc4ccc(F)cc4)c3c2=O)CC1 0.0796%
O=C(c1ccc(Br)cc1)N(Cc1cccs1)c1ccc(F)cc1 -6.96%
CCOCCn1ccc2c(OCC(=O)Nc3cccc([N+](=O)[O-])c3)cccc2c1=O 2.1%
CCCOc1ccc(C2C(=O)N(C3CCCCCC3)CC(=O)N2CCC2=CCCCC2)cc1OC (stereo unspecified) -2.55%
COc1cccc(C(=O)Nc2ccccc2OCc2cc(=O)n3ccccc3n2)c1 -12.2%
Cc1noc(/C=C/c2cccs2)c1S(=O)(=O)N1CCC(C(=O)NCc2ccc(Cl)cc2)CC1 -2.01%
Cc1cccn2c(=O)c(/C=C(\C#N)c3nc4ccccc4s3)c(Oc3ccc(F)cc3)nc12 -0.95%
Cc1cc(N(CCO)Cc2ccccc2)n2nc(-c3ccc(C(C)(C)C)cc3)nc2n1 5.45%
COc1ccccc1CN1CCNC(=O)C1=O 0%
COc1ccc(N(Cc2nnc3n2CCCCC3)C(=O)Nc2cccc(C)c2)cc1Cl 1.75%
CCOc1ccc(CN2CCc3nc(N4CCN(c5ccccn5)CC4)ncc3C2)cc1OC 16.2%
O=C(Cn1ncc2c3ccccc3n(Cc3ccccc3)c2c1=O)NC1CCCCCC1 3.03%
COc1ccccc1NC(=O)Cn1c(=O)n(-c2cccc(C)c2)c(=O)c2c1c1cc(C)ccc1n2C -0.827%
COc1ccc(-c2coc3c2c(C)cc2oc(=O)c(CC(=O)O)c(C)c23)cc1 4.63%
Cc1ccc(NC(=O)Cn2c(=O)n(Cc3ccc4c(c3)OCO4)c(=O)c3ccccc32)cc1 -1.42%
COc1ccc(-c2cn3c(n2)sc2cc(C(=O)NCc4cccc(F)c4)ccc23)cc1 3.98%
Cc1ccc(C(=O)c2cn(Cc3ccccc3C)c3nc(C)ccc3c2=O)cc1 -7.3%
Cc1ccccc1-c1cc2nccc(-c3cc(Cl)ccc3O)n2n1 -22%
CCCc1cnc2c(c1SCc1cccc(F)c1)c(=O)n(C)c(=O)n2C 3.7%
Cc1oc2c(cc(NS(=O)(=O)c3ccc(Cl)cc3)c3ccccc32)c1C(=O)OCc1ccccc1 -16.6%
CCCc1noc(-c2ccc(NCc3ccc(C)cc3)c([N+](=O)[O-])c2)n1 -4.79%
Cc1ccc(NC(=O)CN2C(=O)COc3ccc(S(=O)(=O)NC4CCCC4)cc32)c(Cl)c1 -1.47%
Cc1nc(C)c(CCNS(=O)(=O)c2ccc(F)cc2)s1 -5.39%
CCc1ccc(Nc2nnc(-n3nc(C)cc3C)c3ccccc23)cc1 0.346%
COc1ccc(CNC(=O)c2cnc3sc(N4CCCC4)nn3c2=O)c(OC)c1 -8.98%
CCCCNC(=O)CSc1nc2cc3c(cc2c(=O)n1CCCCCC(=O)NCc1ccc(OC)cc1)OCO3 0.512%
Cc1ccccc1C(=O)NCCc1sc(-c2ccc(Cl)cc2)nc1C -1.49%
COc1ccc(CNC(=O)Cc2csc3nc(-c4ccc(F)cc4)cn23)cc1 0.158%

Potency, active:
CCCc1oc2ccc(NS(=O)(=O)c3ccc(OC)cc3)cc2c1C(=O)OCC 4.14 µM
